Experimental data as given in PubChem BioAssay AID1768 (National Center for Advancing Translational Sciences (NCATS), 2009).
The whole screen tested about 270,000 compounds, of which about 620 (0.23%) were called active. The shares of active, inactive and inconclusive entries below differ from those in the screen. The call rests on the fitted dose curve; in most records, active means well fitted inhibition curve with a large enough effect in the polarisation, with a control signal flat (not every such curve was filed as active); inconclusive means small, poorly fitted or top-dose-only effect, or effect the other way, or a change in a side signal; inactive means no such curve, though single readings can be large or run the other way; the % refers to the polarisation. Where the call is inconclusive, the potency comes from a doubtful curve fit. A note “side channel” means that the fit belongs to a control or component signal, not to the main read-out.

target: Menin (Homo sapiens) (UniProt O00255); experiment: qHTS Assay for Inhibitors Targeting the Menin-MLL Interaction in MLL Related Leukemias: Competition With Texas Red Labeled MLL-derived Mutant Peptide; conditions: fluorescence polarization; FP activity change, negative = inhibition: at 61.6 µM (top of the series); on FP activity change, negative = inhibition: % of control where 0% means no effect
UniProt O00255, sequence (O00255 whole entry, looked up): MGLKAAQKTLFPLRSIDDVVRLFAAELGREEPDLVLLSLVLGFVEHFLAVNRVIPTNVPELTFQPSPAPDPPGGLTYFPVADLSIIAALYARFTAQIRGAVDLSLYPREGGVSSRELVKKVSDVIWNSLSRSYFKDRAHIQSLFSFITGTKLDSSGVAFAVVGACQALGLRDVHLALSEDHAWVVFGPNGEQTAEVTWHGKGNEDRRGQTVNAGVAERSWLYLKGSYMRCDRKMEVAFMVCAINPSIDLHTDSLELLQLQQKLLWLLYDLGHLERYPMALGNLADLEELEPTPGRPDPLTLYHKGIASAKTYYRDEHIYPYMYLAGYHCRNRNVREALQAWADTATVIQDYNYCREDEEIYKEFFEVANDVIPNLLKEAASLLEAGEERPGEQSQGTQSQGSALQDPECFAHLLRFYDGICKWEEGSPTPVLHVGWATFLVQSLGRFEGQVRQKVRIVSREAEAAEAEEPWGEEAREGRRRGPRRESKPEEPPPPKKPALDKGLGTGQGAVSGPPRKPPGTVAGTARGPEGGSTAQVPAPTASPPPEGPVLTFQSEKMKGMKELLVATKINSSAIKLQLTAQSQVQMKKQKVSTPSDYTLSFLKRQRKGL
Potency means the concentration at half of the fitted maximal effect; tags describe the fitted curve by direction and shape or compound fluorescence and quenching.

Structure (SMILES)	FP activity change, negative = inhibition	Potency
CCS(=O)(=O)NCC(c1cccnc1)N1CCN(c2ccccc2)CC1 (stereo unspecified)	inactive: 11.7%	–
O=C(O)c1cccc(-n2c(/C=C/c3cccc([N+](=O)[O-])c3)nc3ccccc3c2=O)c1	–	inconclusive: 25.1 µM [quencher, side channel, single point]
N#Cc1c(-c2ccccc2)nc(SCc2ccc(Cl)cc2)[nH]c1=O	–	inconclusive: 22.4 µM [quencher, side channel, partial curve]
Cc1ccc(/C=C2\SC(=S)N(c3c(C)n(C)n(-c4ccccc4)c3=O)C2=O)cc1	–	inconclusive: 3.16 µM [inhibitor, full curve]
COc1cccc(N=Nc2c(=O)[nH]n3c(=O)c4c([nH]c23)CCC4)c1	–	inconclusive: 35.5 µM [quencher, side channel, single point]
CCN1CCN(c2c(Cl)cccc2NC(=O)c2ccc(Br)o2)CC1	–	inconclusive: 39.8 µM [inhibitor, single point]
COc1cc(/C=C2/C(=O)NN(c3cccc(C)c3)C2=O)ccc1OC(=O)c1ccco1	–	inconclusive: 20 µM [quencher, side channel, partial curve]
C/C(=N\NC(=O)c1nnn(-c2nonc2N)c1CSc1ccc(C)cc1)c1ccco1	–	inconclusive: 25.1 µM [fluorescent, side channel, single point]
O=C1CCc2cc(OCCCCc3nnnn3C3CCCCC3)ccc2N1	–	inconclusive: 20 µM [fluorescent, side channel, partial curve]
C/C(=C\C(=S)Nc1ccccc1)Nc1ccc2ccccc2c1	inactive: 18.5%	–
CCOC(=O)c1c(N)nn(C(C)=O)c1-c1ccccc1	inactive: 5.56%	–
Clc1ccc(-c2cn3cc(Br)ccc3n2)cc1Cl	–	inconclusive: 39.8 µM [inhibitor, single point]
CCOc1ccc(N2C(=O)/C(=C/c3ccccc3)N=C2SC)cc1	–	inconclusive: 28.2 µM [inhibitor, partial curve]
O=C(C1=C[C@@H](c2ccc(C(F)(F)F)cc2)C[C@@H](OCCCCO)O1)N1CCN(Cc2ccccc2)CC1	–	inconclusive: 17.8 µM [fluorescent, side channel, partial curve]
C=CCN1C(=O)/C(=C/c2ccc(-c3ccc(F)cc3)o2)SC1=S	–	inconclusive: 10 µM [quencher, side channel, partial curve]
COc1ccccc1C(=O)Nc1nnc(-c2ccccc2)s1	inactive: 29.6%	–
COc1ccc(N(C(=O)c2ccccc2)S(=O)(=O)c2cccs2)cc1	inactive: 16.1%	–
O=C(N/N=C/c1ccc([N+](=O)[O-])o1)c1cn(-c2ccccc2)nc1-c1ccccc1	–	inconclusive: 10 µM [quencher, side channel, partial curve]
CSC1=NCCN1C(=O)c1ccc2c(c1)OCO2	–	inconclusive: 2.51 µM [inhibitor, partial curve, poor fit]

Structure (SMILES)	FP activity change, negative = inhibition	Potency
O=c1[nH]c2ccccc2nc1/C=C(\O)c1cccs1	–	inconclusive: 14.1 µM [quencher, side channel, partial curve]
COc1cc(/C=N/NS(=O)(=O)c2ccc(C(C)(C)C)cc2)cc([N+](=O)[O-])c1O	–	inconclusive: 14.1 µM [quencher, side channel, partial curve]
CSc1nc(-c2ccco2)cc(C(F)(F)F)c1C#N	–	inconclusive: 12.6 µM [inhibitor, partial curve]
COc1cc(C(CC(=O)Nc2ccccn2)N2Cc3ccccc3C2=O)cc(OC)c1OC (stereo unspecified)	–	inconclusive: 7.94 µM [inhibitor, partial curve]
CCOC(=O)c1c(NC(=O)CSc2nnc(-c3c[nH]c4ccccc34)n2CC)sc2c1CCCC2	–	inconclusive: 3.98 µM [fluorescent, side channel, full curve, poor fit]
O=C(Nc1ccccc1)Nc1ccc(F)c([N+](=O)[O-])c1	–	inconclusive: 25.1 µM [quencher, side channel, single point]
CS(=O)(=O)c1ccc(C(=O)OCc2nnc(-c3ccc(Cl)cc3)o2)cc1[N+](=O)[O-]	–	inconclusive: 25.1 µM [quencher, side channel, single point]
COc1ccc(Nc2nc(N/N=C/c3ccc(N(C)C)cc3)nc(C)c2[N+](=O)[O-])cc1	–	inconclusive: 14.1 µM [quencher, side channel, partial curve]
CC(C)C(=O)NC(c1ccc(Cl)cc1Cl)c1ccc2cccnc2c1O (stereo unspecified)	–	inconclusive: 39.8 µM [quencher, side channel, single point]
O=C(Nc1ccc(C(=O)O)cc1)/C(=C\c1ccco1)NC(=O)c1ccco1	–	inconclusive: 39.8 µM [quencher, side channel, single point]
Cc1ccc(N(C(=O)c2snc(C(N)=O)c2N)C(C(=O)NCC2CCCO2)c2ccc(C)o2)c(C)c1 (stereo unspecified)	–	inconclusive: 39.8 µM [inhibitor, partial curve]
COc1ccc(CCNC(=O)CCCCCNc2nc(=S)[nH]c3ccccc23)cc1OC	inactive: -8.32%	–
COc1ccc(/C(C)=N/NC(=O)c2sccc2-n2cccc2)cc1	–	inconclusive: 14.1 µM [fluorescent, side channel, partial curve]
Cc1ccc(Cc2cnc(NC(=O)/C(C#N)=C/c3ccc(-c4cccc([N+](=O)[O-])c4)o3)s2)cc1	–	inconclusive: 7.94 µM [quencher, side channel, full curve]
Cc1[nH]n(-c2ccc(Br)cc2)c(=O)c1/C=N/NC(=O)c1ccccc1	–	inconclusive: 3.98 µM [quencher, side channel, partial curve]
COc1cc(C(=O)Oc2ccc3c(OC)c4ccoc4nc3c2OC)cc(OC)c1OC	inactive: -1.23%	–
Nc1c(C(=O)N2CCCCC2)sc2nc3c(cc12)CCCC3	–	inconclusive: 3.16 µM [fluorescent, side channel, full curve, poor fit]
O=C(Nc1ncc(Cc2ccc(C(F)(F)F)cc2)s1)c1ccc(-c2cccc([N+](=O)[O-])c2)o1	–	inconclusive: 3.98 µM [quencher, side channel, partial curve]
CN(Cc1ccccc1)CC(O)COc1ccc(CNCc2nccn2C)cc1 (stereo unspecified)	–	inconclusive: 39.8 µM [inhibitor, single point]

Structure (SMILES)	FP activity change, negative = inhibition	Potency
COc1ccccc1N1CCN(c2nnc(-c3ccc(F)cc3)c3ccccc23)CC1	–	inconclusive: 2.82 µM [fluorescent, side channel, full curve, poor fit]
O=C(NC1CCCCC1)C(c1ccc(F)cc1)N(Cc1ccco1)C(=O)Cn1nnc2ccccc21 (stereo unspecified)	–	inconclusive: 39.8 µM [inhibitor, single point]
O=C(Cc1cccc(C(F)(F)F)c1)Nc1ccccc1	–	inconclusive: 39.8 µM [quencher, side channel, single point]
C=CCNC(=S)N/N=C/c1ccc(-c2ccc(Br)cc2)o1	–	inconclusive: 15.8 µM [quencher, side channel, partial curve]
CCOC(=O)c1ccc(N/C=C/C(=O)C(C)(C)C)cc1	–	inconclusive: 17.8 µM [fluorescent, side channel, partial curve]
CCn1cc(C(=O)NCCCN2CCCC(C)C2)c(=O)c2cc(S(=O)(=O)N3CCc4ccccc4C3)ccc21 (stereo unspecified)	–	inconclusive: 12.6 µM [fluorescent, side channel, partial curve]
COc1ccc(S(=O)(=O)N2N=C(C)Oc3ccccc3C2=O)cc1	–	inconclusive: 7.08 µM [fluorescent, side channel, single point]
C=CCOn1c(=O)c(-c2ccc(Br)cc2)[n+]([O-])c2ccccc21	–	inconclusive: 35.5 µM [fluorescent, single point]
Cc1cccn2c(CNCC3(c4ccccc4)CCCC3)c(C(=O)N3CCOCC3)nc12	–	inconclusive: 12.6 µM [fluorescent, side channel, partial curve]
CCN1/C(=C/C=C/C=C/C=C/c2sc3ccccc3[n+]2CC)Sc2ccccc21	–	inconclusive: 28.2 µM [fluorescent, side channel, partial curve]
COC(=O)c1cccc(NC(=O)/C=C/c2ccc([N+](=O)[O-])cc2)c1	–	inconclusive: 20 µM [quencher, side channel, single point]
CC1(C)NC(=O)N(c2ccc([N+](=O)[O-])c(C(F)(F)F)c2)C1=O	–	inconclusive: 25.1 µM [quencher, side channel, single point]
N#C/C(=C\C1=C(N2CCOCC2)C(=C\c2ccccc2)/CC1)C(=O)Nc1ccccc1F	–	inconclusive: 15.8 µM [fluorescent, side channel, partial curve]
O=C([C@H](Cc1ccccc1)NS(=O)(=O)c1ccc(Cl)cc1)N1CC[C@@]2(O)CCCC[C@H]2C1	–	inconclusive: 8.91 µM [inhibitor, partial curve]
CCC1C/C(=C\c2cccnc2)C(=O)/C(=C/c2cccnc2)C1 (stereo unspecified)	inactive: -13.1%	–
O=C(Nc1ccc(CSc2ccccc2)cc1)c1ccccc1	–	inconclusive: 31.6 µM [inhibitor, partial curve]
O=C(Nc1ccncc1)c1cn(-c2ccccc2)nc1-c1cccs1	–	inconclusive: 2.24 µM [quencher, side channel, full curve]
COC(=O)c1cccc(C(=O)N2CCCC(C(=O)c3cc(F)ccc3F)C2)c1 (stereo unspecified)	–	inconclusive: 22.4 µM [fluorescent, side channel, single point]
